Results: the supplement of paper PMC9446081
About 220 (0.56%) of roughly 39,000 compounds showed activity. Some of the results follow.

test system: Escherichia coli K-12 BW25113; assay: relative growth (OD600 normalised to plate interquartile mean) (fraction); higher = less growth inhibition, active = 0.2 or less; conditions: 50 µM; LB; incubation time: overnight (16-24 h)
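Also: static incubation at 37 °C against the wild-type strain, values averaged over two biological replicates.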

| Compound | relative growth |
| --- | --- |
| CC(=O)N1CCC(C(=O)N2CCC(n3cc(C(C)(C)N)nn3)CC2)CC1 | inactive: 1.02 |
| Cc1ccc(S(=O)(=O)N2C[C@@H](O)COC[C@@H]3O[C@H](CC(=O)N4CCc5ccccc5C4)CC[C@H]32)cc1 | inactive: 1.01 |
| COc1ccc(S(=O)(=O)Nc2ccc3c(c2)C(=O)N([C@@H](C)CO)C[C@@H](C)[C@H](CN(C)CC2CCCCC2)OCCCC[C@H](C)O3)cc1 | inactive: 0.989 |
| C[C@@H]1CN([C@H](C)CO)C(=O)Cc2cc(NS(=O)(=O)c3cccs3)ccc2O[C@H]1CN(C)Cc1ccc(Cl)c(Cl)c1 | inactive: 0.998 |
| Cc1noc(C)c1S(=O)(=O)N(C)C[C@@H]1Oc2ccc(NC(=O)CCCN(C)C)cc2C(=O)N([C@H](C)CO)C[C@@H]1C | inactive: 0.993 |
| COc1ccccc1NC(=O)N(C)C[C@H]1OCc2ccccc2-c2c(n(C)c3ccccc23)C(=O)N([C@@H](C)CO)C[C@H]1C | inactive: 0.992 |
| C[C@H](CO)N1C[C@H](C)[C@H](CN(C)C(=O)NC2CCCCC2)Oc2ccc(NC(=O)C3CC3)cc2C1=O | inactive: 1.01 |
| COC(=O)[C@@H](Cc1ccc(-n2cc(COc3ccccc3/C=C(C)/C=C/C(=O)NO)nn2)cc1)N1CC2=C[C@H](C3CC3)n3c(=O)n(C)c(=O)n3[C@@H]2[C@H]1[C@H](O)Cc1ccccc1 | inactive: 1.02 |
| CCS(=O)(=O)Nc1ccc2c(c1)C(=O)N(C)[C@H]1CC[C@@H](CC(=O)NCc3ccc(OC)cc3)O[C@@H]1CO2 | inactive: 0.967 |
| CC(=O)N1CCC(N)CC1 | inactive: 1.01 |
| C[C@H](CO)N1C[C@H](C)[C@H](CN(C)S(=O)(=O)c2cccs2)Oc2ccc(NS(=O)(=O)c3cn(C)cn3)cc2CC1=O | inactive: 1.01 |
| C[C@H]1CN([C@@H](C)CO)C(=O)Cc2cc(NC(=O)Nc3cccc4ccccc34)ccc2O[C@@H]1CN(C)C(=O)NC1CCCCC1 | inactive: 1.01 |
| CC[C@@H]1CN(C(=O)c2ccccn2)N1 | inactive: 1.01 |
| C[C@@H]1CN([C@@H](C)CO)C(=O)c2cc(NS(=O)(=O)c3ccc(Cl)cc3)ccc2O[C@@H](C)CCCCO[C@H]1CN(C)C(=O)Cc1ccccc1 | inactive: 1.03 |
| C[C@@H]1CCCCO[C@H](CN(C)Cc2ccncc2)[C@@H](C)CN([C@H](C)CO)C(=O)c2cc(NC(=O)Nc3ccccc3)ccc2O1 | inactive: 1.01 |
| Cc1noc(C)c1NC(=O)Nc1ccc2c(c1)C(=O)N([C@H](C)CO)C[C@@H](C)[C@H](CN(C)S(=O)(=O)c1ccccc1)OCCCC[C@H](C)O2 | inactive: 0.999 |
| Cc1cc(=O)oc2cc(O[C@H]3O[C@@H](CO)[C@@H](O)[C@@H](O)[C@@H]3O)ccc12 | inactive: 1.03 |
| C[C@H](CO)N1C[C@H](C)[C@@H](CN(C)Cc2ccc(Oc3ccccc3)cc2)OCc2ccccc2-c2ccccc2C1=O | inactive: 1.02 |
| CN(C)S(=O)(=O)N1CCN(CC(=O)Nc2ccc(Br)cc2)CC1 | inactive: 0.966 |
| C[C@@H]1CCCCO[C@H](CN(C)S(=O)(=O)c2cccs2)[C@H](C)CN([C@@H](C)CO)C(=O)c2cc(NC(=O)Nc3ccc(C(F)(F)F)cc3)ccc2O1 | inactive: 0.995 |

| Compound | relative growth |
| --- | --- |
| COCC(=O)Nc1ccc2c(c1)C(=O)N(C)[C@H]1CC[C@@H](CC(=O)NC3Cc4ccccc4C3)O[C@@H]1CO2 | inactive: 1.02 |
| C#CCN1C(=O)N(C(=O)c2ccccc2)[C@@]2(COCc3ccc(OC)cc3)Oc3ccccc3[C@@H]1[C@H]2CO[Si](C)(C)C(C)(C)C | inactive: 1.01 |
| C[C@H](CO)N1C[C@H](C)[C@@H](CN(C)S(=O)(=O)c2cccs2)Oc2ccc(NS(C)(=O)=O)cc2CC1=O | inactive: 1.01 |
| CC1(C)CCC2(C(=O)O)CCC3(C)C(=CCC4C5(C)CCC(O)C(C)(C)C5CCC43C)C2C1 (centres undefined) | inactive: 1.03 |
| C[C@@H]1CN([C@H](C)CO)C(=O)c2cc(NC(=O)Nc3ccc4c(c3)OCO4)ccc2O[C@@H](C)CCCCO[C@@H]1CN(C)Cc1ccc(C(=O)O)cc1 | inactive: 1.02 |
| C[C@@H]1CCCCO[C@H](CN(C)Cc2ccccc2)[C@H](C)CN([C@@H](C)CO)C(=O)c2cc(NC(=O)Cc3ccccc3)ccc2O1 | inactive: 1.03 |
| CCC(=O)N(C)C[C@@H]1Oc2ncc(C#C[C@@H](C)O)cc2C(=O)N([C@H](C)CO)C[C@H]1C | inactive: 1.01 |
| C[C@@H]1CN([C@@H](C)CO)S(=O)(=O)c2ccc(-c3cccnc3)cc2O[C@H]1CN(C)CC1CCOCC1 | inactive: 1.02 |
| COc1ccc(-c2ccc3cc(C(=O)O)ccc3c2)cc1C12CC3CC(CC(C3)C1)C2 | inactive: 1.02 |
| Cc1noc(C)c1S(=O)(=O)Nc1ccc2c(c1)C(=O)N([C@@H](C)CO)C[C@H](C)[C@@H](CN(C)C(=O)Nc1ccc(F)cc1)OCCCC[C@@H](C)O2 | inactive: 0.998 |
| CCc1nc2ccc(C(=O)Nc3ccc(C(N)=O)cc3)cn2c1N(CC)Cc1cccc(Br)c1 | inactive: 1.01 |
| C[C@@H]1CN([C@@H](C)CO)C(=O)c2cc(NC(=O)Nc3ccc(F)cc3)ccc2O[C@@H](C)CCCCO[C@@H]1CN(C)S(=O)(=O)c1cccs1 | inactive: 1.03 |
| C[C@@H]1CN([C@@H](C)CO)C(=O)c2cccc(NC(=O)Nc3cccc4ccccc34)c2O[C@H]1CN(C)CC1CC1 | inactive: 0.963 |
| O=C(C[C@@H]1C=C[C@@H](NC(=O)Nc2ccc3c(c2)OCO3)[C@H](CO)O1)NCCCN1CCOCC1 | inactive: 0.987 |
| C[C@H]1CN([C@@H](C)CO)S(=O)(=O)c2ccc(Br)cc2O[C@H]1CN(C)Cc1ccc(F)cc1 | inactive: 0.981 |
| Cl.Nc1c2c(nc3ccccc13)CCCC2 | inactive: 0.911 |
| COc1cccc(S(=O)(=O)Nc2ccc3c(c2)[C@H]2C[C@@H](CC(=O)NC4CCCCC4)O[C@@H](CO)[C@H]2O3)c1 | inactive: 1.02 |
| COc1ccc(S(=O)(=O)N(C)C[C@@H]2Oc3c(NC(=O)Nc4cccc5ccccc45)cccc3C(=O)N(C(C)C)C[C@H]2C)cc1 | inactive: 1.03 |
| CNC1C(OC2C(OC3C(O)C(O)C(NC(=N)N)C(O)C3NC(=N)N)OC(C)C2(O)CO)OC(CO)C(O)C1O.O=S(=O)(O)O (centres undefined) | active: 0.0643 |
